From the supplement of paper PMC4967469
IC50 is the fitted dose that halves viability relative to control wells, and lower means more sensitive; a limit (>, <) means that the fit lies beyond the doses tested. AUC, from the same fit, is the share of area under the viability curve across the 256-fold dose range; it is 1 without any effect and falls as sensitivity rises.

Compound: Cn1c(=O)n(-c2ccc(C(C)(C)C#N)cc2)c2c3cc(-c4cnc5ccccc5c4)ccc3ncc21 [NVP-BEZ235]
Assay: Viability of human cancer cell lines after 72 h of drug (GDSC screen)
Experimental: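 Human cancer cell lines in 384-well plates, medium with 10% serum, drug for 72 h over a 256-fold dose range (nine 2-fold or five 4-fold steps up to the top dose). Adherent lines were fixed and stained with the nucleic acid dye Syto60, suspension lines read with resazurin; signal relative to control wells, capped at 0 and 100%. One two-parameter sigmoid per drug and line, fitted in a mixed model over all curves with the slope shared within a line.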

Which results are given for “LB771-HNC (head and neck, adherent, top dose 0.25 µM)”?
AUC: 0.839; IC50: 236 nM

“LB831-BLC (bladder, adherent, top dose 0.25 µM)” was tested. Which AUC did it give?
The AUC was 0.793.

And the IC50?
Its IC50 is 116 nM.

Which results are given for “LB996-RCC (kidney, adherent, top dose 2 µM)”?
AUC: 0.367; IC50: 50.5 nM

What does the source list for “LB1047-RCC (kidney, adherent, top dose 0.25 µM)”?
AUC: 0.653; IC50: 44.1 nM

Which AUC does the source give for “LB2518-MEL (melanoma, adherent, top dose 0.25 µM)” here?
The AUC was 0.803.

What about the IC50 of the same cell line?
Its IC50 is 132 nM.

For “LC4-1 (lymphoblastic leukaemia, suspension, top dose 0.25 µM)”, which AUC is on record?
The AUC was 0.911.

And the IC50?
Its IC50 is over 250 nM.

Which results are given for “LC-1-sq (lung squamous cell carcinoma, adherent, top dose 0.25 µM)”?
AUC: 0.917; IC50: > 250 nM

With “LC-2-ad (lung adenocarcinoma, adherent, top dose 0.25 µM)” as the cell line, how does the AUC read?
The AUC was 0.742.

What about the IC50 of the same cell line?
The IC50 was 78.4 nM.

Which results are given for “LCLC-97TM1 (large cell lung carcinoma, adherent, top dose 0.25 µM)”?
AUC: 0.735; IC50: 79.1 nM

Which results are given for “LCLC-103H (large cell lung carcinoma, adherent, top dose 2 µM)”?
AUC: 0.546; IC50: 164 nM

What does the source list for “LK-2 (lung squamous cell carcinoma, adherent, top dose 0.25 µM)”?
AUC: 0.745; IC50: 74.8 nM

With “LN-18 (glioma, adherent, top dose 0.25 µM)” as the cell line, how does the AUC read?
The AUC was 0.76.

And the IC50?
Its IC50 is 72.9 nM.

Which results are given for “LN-229 (glioma, adherent, top dose 0.25 µM)”?
AUC: 0.846; IC50: 181 nM

Which AUC does the source give for “LN-405 (glioma, adherent, top dose 0.25 µM)” here?
Its AUC is 0.685.

What about the IC50 of the same cell line?
The IC50 was 59.3 nM.

For “LNCaP-Clone-FGC (prostate, adherent, top dose 0.25 µM)”, which AUC is on record?
The AUC was 0.638.

And the IC50?
The IC50 was 39.9 nM.

Which AUC does the source give for “LNZTA3WT4 (glioma, adherent, top dose 0.25 µM)” here?
Its AUC is 0.744.

And the IC50?
The IC50 was 76.6 nM.

With “LOU-NH91 (lung squamous cell carcinoma, adherent, top dose 0.25 µM)” as the cell line, how does the AUC read?
Its AUC is 0.725.

And the IC50?
Its IC50 is 72.9 nM.

“LOUCY (T-cell lymphoblastic leukaemia, suspension, top dose 0.25 µM)” was tested. Which AUC did it give?
The AUC was 0.674.

What about the IC50 of the same cell line?
The IC50 was 43 nM.

Which results are given for “LOXIMVI (melanoma, semi-adherent, top dose 0.25 µM)”?
AUC: 0.51; IC50: 16.6 nM

What does the source list for “LP-1 (myeloma, suspension, top dose 0.25 µM)”?
AUC: 0.856; IC50: 150 nM

Which AUC does the source give for “LS-180 (large intestine, adherent, top dose 0.25 µM)” here?
Its AUC is 0.716.

And the IC50?
Its IC50 is 70.5 nM.

“LS-411N (large intestine, adherent, top dose 0.25 µM)” was tested. Which AUC did it give?
The AUC was 0.788.

And the IC50?
The IC50 was 137 nM.

Which results are given for “LS-513 (large intestine, adherent, top dose 0.25 µM)”?
AUC: 0.804; IC50: 131 nM

“LS-1034 (large intestine, adherent, top dose 0.25 µM)” was tested. Which AUC did it give?
Its AUC is 0.891.

What about the IC50 of the same cell line?
Its IC50 is over 250 nM.

“LU-65 (large cell lung carcinoma, suspension, top dose 0.25 µM)” was tested. Which AUC did it give?
The AUC was 0.987.

What about the IC50 of the same cell line?
The IC50 was over 250 nM.

Which results are given for “LU-134-A (small cell lung carcinoma, suspension, top dose 0.25 µM)”?
AUC: 0.84; IC50: 188 nM

With “LU-135 (small cell lung carcinoma, suspension, top dose 0.25 µM)” as the cell line, how does the AUC read?
The AUC was 0.83.

And the IC50?
The IC50 was 122 nM.

Which results are given for “LU-139 (small cell lung carcinoma, suspension, top dose 0.25 µM)”?
AUC: 0.437; IC50: 10 nM

How did the AUC turn out when “LU-165 (small cell lung carcinoma, suspension, top dose 0.25 µM)” was run?
The AUC was 0.964.

And the IC50?
Its IC50 is over 250 nM.

Which AUC does the source give for “LXF-289 (lung adenocarcinoma, adherent, top dose 0.25 µM)” here?
Its AUC is 0.581.

What does the source list for “LoVo (large intestine, adherent, top dose 0.25 µM)”?
AUC: 0.68; IC50: 50.1 nM

Which results are given for “M059J (glioma, adherent, top dose 0.25 µM)”?
AUC: 0.667; IC50: 47.5 nM

What does the source list for “MC116 (B-cell lymphoma, suspension, top dose 0.25 µM)”?
AUC: 0.995; IC50: > 250 nM

Which results are given for “MC-CAR (haematopoietic neoplasm, suspension, top dose 0.25 µM)”?
AUC: 0.517; IC50: 17.3 nM

Which results are given for “MC-IXC (neuroblastoma, adherent, top dose 0.25 µM)”?
AUC: 0.749; IC50: 63.4 nM

For “MCF7 (breast, adherent, top dose 0.25 µM)”, which AUC is on record?
Its AUC is 0.67.

And the IC50?
The IC50 was 47.5 nM.

With “MDA-MB-157 (breast, adherent, top dose 0.25 µM)” as the cell line, how does the AUC read?
The AUC was 0.665.

What about the IC50 of the same cell line?
The IC50 was 45.7 nM.

What does the source list for “MDA-MB-231 (breast, adherent, top dose 0.25 µM)”?
AUC: 0.753; IC50: 88.3 nM

Which results are given for “MDA-MB-330 (breast, adherent, top dose 0.25 µM)”?
AUC: 0.651; IC50: 43.6 nM
